In the RNAGym collection of RNA variant scans (doi:10.1073/pnas.2313332121):
This sample is rich in variants without activity.

B1: TPR 5TU (parent)
chain: GGAUCUUCUCGAUCUAACAAAAAAGACAAAUCUGCCACAAAGCUUGAGAGCAUCUUCGGAUGCAGAGGCGGCAGCCUUCGGUGGCGCGAUAGCGCCAACGUUCUCAACUAUGACACGCAAAACGCGUGCUCCGUUGAAUGGAGUUUAUCAUG

Variants of: B1
Experiment: polymerase ribozyme fitness, log enrichment relative to wild type (log ratio); higher = more active; in vitro selection for triplet polymerase activity
In short: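 Streptavidin-bead capture of gel-excised extended constructs, followed by RT-PCR, closed a single triplicate in vitro selection round. That round began by annealing PCR-built, transcribed mutant libraries of each subunit of a heterodimeric triplet polymerase ribozyme with a biotinylated primer, the partner subunit and triplets, then incubating them frozen at −7 °C. After Illumina sequencing of inputs and outputs, genotypes needed ≥10 input reads and ≥1 read per output. Fitness is the base-2 logarithm of genotype enrichment over wild-type enrichment, using inverse-variance-weighted replicate averages.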

Variant | polymerase ribozyme fitness (log ratio)
C5U A66G C87U | ≤ -4.2
C5U A142U | -0.885
C5U C8A A26U A39G | ≤ -4.2
C5U C8G A12G A19U U55G C87A C96G A147C | ≤ -4.2
C5U C8G A21U C87A C125A | ≤ -4.2
C5U C8G U9G U61G U77A G84A U146C | ≤ -4.2
C5U C10A A47C G58A A73U A91U C95G C118A G124A | ≤ -4.2
C5U C10G A16G A30C G59A C87U G126C | ≤ -4.2
C5U C10G C32U A52C U55G G88A U101G | ≤ -4.2
C5U C10G C35U C75G U102G A107U C118A | ≤ -4.2
C5U C10G U45A G58A G67A U135A | ≤ -4.2
C5U C14G C85U C93G A138G | ≤ -4.2
C5U C18U C27U C76A C79A C87U C99U A107C A142U U146A | ≤ -4.2
C5U C27G A29G G71U U77G C85A G88U | ≤ -4.2
C5U C27G A66C C93A G124C | ≤ -4.2
C5U C27G G58C G80A C87U C99U G100A C116G U134G A147G | ≤ -4.2
C5U C38G A66U G94C | ≤ -4.2
C5U C38U C54U G94U A115U A119G G136U A147U | -3.8
C5U C38U C85G U101C | -1.38
C5U C43A | ≤ -4.2
C5U C43U U56G C57U G58U C69A C76U G80U C93A A106U C118A U151G | ≤ -4.2

Variant | polymerase ribozyme fitness (log ratio)
C5U C51G G62A G74U C76G C95U C96U | ≤ -4.2
C5U C54U U82A C95G A147U | -1.27
C5U C85G | -1.7
C5U C85G G133C U135C | ≤ -4.2
C5U C87U G94C | -2.15
C5U C93U | 0.375
C5U C96A | 0.48
C5U C96U | 0.36
C5U G11U A24C C87A | ≤ -4.2
C5U G25U C85A A106G C125A U130G U139C | ≤ -4.2
C5U G34A A49C C57A C75U C93A C118G A122C C123A | ≤ -4.2
C5U G46A A52G C85U A107U C118A A137U | ≤ -4.2
C5U G50A C54A C76U G84U C95U C114U | ≤ -4.2
C5U G50U C85U U90G C95U C96G U139G | ≤ -4.2
C5U G65U A91U A137U U146G | ≤ -4.2
C5U G68C U134G U144A | ≤ -4.2
C5U G74A A91U C93G | ≤ -4.2
C5U G84A A150C | ≤ -4.2
C5U G84A C105U A113C C129A | ≤ -4.2
C5U G84A U90C A121U G126C U134G A137G | ≤ -4.2
C5U G92A C114U | -3.86

Variant | polymerase ribozyme fitness (log ratio)
C5U U6G C8U C54U U61A C96U A121C G133U | ≤ -4.2
C5U U6G C79G | ≤ -4.2
C5U U7A C54G U82G G94A U104C G117A A119U G124U G136A U151G | ≤ -4.2
C5U U7A G88U U148C A150C | ≤ -4.2
C5U U7G A17U A52G C57A G140U | ≤ -4.2
C5U U7G A29C A49G G50C C76A C87U C131A G133A U145G | ≤ -4.2
C5U U7G C14G G88U U104G A150U | ≤ -4.2
C5U U7G G11C A30U A47C C54G C57U A64C G92C | ≤ -4.2
C5U U9C C87G U101G C105U A107G C118G U148G | ≤ -4.2
C5U U9G A12C U33G G58A G88A A91G G94A A113C A121C | ≤ -4.2
C5U U9G A19U A29U G92A U104G | ≤ -4.2
C5U U13A C57G G141U | -1.34
C5U U15G A19U C35A G68A C85U C108A | ≤ -4.2
C5U U31C C38U U44G A47C C85U U139C | ≤ -4.2
C5U U33A C38U C57G C93U A98U | ≤ -4.2
C5U U45A U82G G83U C114U | ≤ -4.2
C5U U53A C75U G88C | ≤ -4.2
C5U U55G C79G C87A A97U A106C | ≤ -4.2
C5U U55G U145C U146A U151G | ≤ -4.2
C5U U77G G80C C96U | ≤ -4.2
C5U U78G U82G C95U A97G A121U G141U | ≤ -4.2

Variant | polymerase ribozyme fitness (log ratio)
C5U U82A C103G A113U A137C U148A | ≤ -4.2
U6A | 0.197
U6A A12C G58U A91C A98U C103G C131U | ≤ -4.2
U6A A12G A17C A52C U56A U77A C85U G124C G126A G143C | ≤ -4.2
U6A A12U A28U U90G C99U C105A | ≤ -4.2
U6A A12U U15A C38A A40C C93G C95U A107C U144G U146A | ≤ -4.2
U6A A16C A20G G62C A91U A110U | ≤ -4.2
U6A A16C C27U U31G A52C C54G C118U | ≤ -4.2
U6A A16G C36A G68C U78A C85G A89U | ≤ -4.2
U6A A16G U148G | ≤ -4.2
U6A A16U A29U A39G C57G A66C C85G A91U | ≤ -4.2
U6A A17C C18G A89G C96G G136C | ≤ -4.2
U6A A17G C18G C85G C95G A110U C123U | ≤ -4.2
U6A A17G G50C G68A G80C C93G C96A U104G G140U A142C | ≤ -4.2
U6A A17U C18G A20C A22G C27U U56A C99A | ≤ -4.2
U6A A19C A24U A28G G141C G152A | -3.96
U6A A19C U56A G83A G124C | -1.45
U6A A19U A41G G42A C75G C99G A122C | ≤ -4.2
U6A A20C U31C C96A U127C | -1.86
U6A A21G A22U A26U A30U U44G G50U A97G C103A U135A | ≤ -4.2
